In all, about 310,000 compounds went through this assay and about 14,000 (4.5%) showed an effect of 50% or more. The effect is printed as a negative number. This is one part of the list.
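Note: peak tail current of the secondary pulse compared with the same well before compound.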

Chain of human ether-à-go-go-related gene (hERG) potassium channel (Q12809 whole entry, looked up): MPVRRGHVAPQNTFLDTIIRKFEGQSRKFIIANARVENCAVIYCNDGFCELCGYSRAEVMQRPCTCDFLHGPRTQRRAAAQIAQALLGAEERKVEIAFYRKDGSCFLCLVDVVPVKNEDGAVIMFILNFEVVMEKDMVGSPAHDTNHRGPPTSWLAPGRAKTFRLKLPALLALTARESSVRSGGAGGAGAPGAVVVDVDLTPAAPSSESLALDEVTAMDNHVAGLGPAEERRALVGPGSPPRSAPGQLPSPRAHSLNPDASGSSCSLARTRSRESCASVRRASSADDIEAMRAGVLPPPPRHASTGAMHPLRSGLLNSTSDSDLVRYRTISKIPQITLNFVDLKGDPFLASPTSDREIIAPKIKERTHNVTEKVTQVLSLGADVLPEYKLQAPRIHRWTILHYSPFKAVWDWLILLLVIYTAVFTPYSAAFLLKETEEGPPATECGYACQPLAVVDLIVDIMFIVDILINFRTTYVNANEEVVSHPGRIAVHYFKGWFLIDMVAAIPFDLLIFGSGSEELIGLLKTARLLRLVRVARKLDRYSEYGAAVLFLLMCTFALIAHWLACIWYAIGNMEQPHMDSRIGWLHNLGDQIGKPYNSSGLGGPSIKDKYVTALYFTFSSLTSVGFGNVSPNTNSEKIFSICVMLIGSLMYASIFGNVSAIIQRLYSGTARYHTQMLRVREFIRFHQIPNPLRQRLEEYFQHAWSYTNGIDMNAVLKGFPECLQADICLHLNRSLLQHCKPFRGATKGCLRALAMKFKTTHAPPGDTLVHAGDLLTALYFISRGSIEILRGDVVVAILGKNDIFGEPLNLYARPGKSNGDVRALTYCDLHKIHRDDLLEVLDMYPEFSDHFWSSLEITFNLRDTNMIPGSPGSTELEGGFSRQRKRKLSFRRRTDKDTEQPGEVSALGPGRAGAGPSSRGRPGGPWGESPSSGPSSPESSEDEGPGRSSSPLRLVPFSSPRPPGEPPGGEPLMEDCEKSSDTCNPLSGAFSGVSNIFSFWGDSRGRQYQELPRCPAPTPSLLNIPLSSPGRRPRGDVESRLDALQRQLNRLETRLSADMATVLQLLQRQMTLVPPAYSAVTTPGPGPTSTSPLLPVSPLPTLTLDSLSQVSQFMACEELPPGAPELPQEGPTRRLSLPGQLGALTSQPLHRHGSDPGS

This assay has as its target human ether-à-go-go-related gene (hERG) potassium channel (human, UniProt Q12809). Nature of the assay: primary screen, population patch clamp on CHO cells stably expressing hERG.
Consider `COC(=O)C1C(=O)c2c([nH]c(C(=O)OCC3CCCO3)c2C)CC1C` (centres unmarked), for which the “hERG current change (%, negative = inhibition) at 10uM” value worked out at 3.02%.
The result for `CCN(CC)c1ccc(NC(=O)CCNS(=O)(=O)c2ccc3c(c2)CCC(=O)N3)c(C)c1` reads 5.77%; that for `COc1cc(CNCCO)ccc1OCC(=O)Nc1ccc(Br)cc1`, -36.2%; that for `CCOc1ccc(C2c3[nH]c4ccccc4c3CCN2CCCn2cccn2)cc1` (centres unmarked), -68.7%.
Consider `Cn1nnnc1SCC(=O)Nc1ccc(Cl)c(S(=O)(=O)N2CCOCC2)c1`, for which the “hERG current change (%, negative = inhibition) at 10uM” value is reported as 2.85%.
For `c1ccc(CNc2nc(-c3cccnc3)cs2)cc1`, the “hERG current change (%, negative = inhibition) at 10uM” value is -14%.
Turning to `OCCC1CN(Cc2nc3ccccc3[nH]2)CCN1C1CCCC1` (centres unmarked), the “hERG current change (%, negative = inhibition) at 10uM” value came to 3.43%.
To `CC1(C(=O)N(Cc2ccccc2)Cc2ccccc2)CC1(Br)Br` (centres unmarked) belongs -12.3%; to `Cc1ccc(CNS(=O)(=O)c2cn(C)c(=O)n(C)c2=O)cc1`, -0.643%; to `Cc1nc(N)nc(C)c1Cc1ccccc1`, 8.87%.
The result for `Cc1ccc(C)c2[nH]c(=O)c(CCNC(=O)CCc3ccccc3)cc12` reads 6.68%; that for `NNc1nc2cccnc2n(CCNc2ncc(C(F)(F)F)cc2Cl)c1=O`, 7.56%; that for `CCOC(=O)C(NCc1ccccn1)(NC(=O)c1cccnc1)C(F)(F)F` (centres unmarked), -1.18%.
To `Cc1ccccc1Cn1cnc2ccccc2c1=O` belongs -14.6%; to `CN1CCN(c2ccc(NC(=O)c3ccc(Br)o3)cc2)CC1`, -16.2%.
Take `N=C1C(c2ccccc2)=C(O)CN1c1cccc(S(=O)(=O)NCc2ccco2)c1`: the “hERG current change (%, negative = inhibition) at 10uM” value is reported as -4.61%.
To `COc1ccc(OC(=O)c2ccc(Cl)cc2)c(C(C)=O)c1` belongs 12.3%; to `CCOC(=O)c1c(CNCCN(CC)CC)n(C)c2cc(Br)c(OC)cc12.Cl`, -68.5%.
`CC(=O)Nc1ccc(S(=O)(=O)NCCc2ccc(F)cc2)cc1`: the “hERG current change (%, negative = inhibition) at 10uM” value is listed as -10.7%.
To `COc1ccccc1CNCC(=O)NCc1ccc(C)cc1.O=C(O)C(=O)O` belongs -39.7%; to `Cc1cccc(-c2noc(CCCC(=O)NCC3CCCO3)n2)c1` (centres unmarked), 12.1%; to `Fc1cccc(CNc2ncnc3ccc(-c4ccc5c(c4)OCO5)cc23)c1`, -31%.
To `CC(=O)c1cccc(NC(=S)N2CCN(c3ccccn3)CC2)c1` belongs -8.57%; to `COc1cccc(C2C(C#N)=C(N)OC3=C2C(=O)CCC3)c1OC(=O)c1ccco1` (centres unmarked), 14%.
On to `O=C1CCCC(=O)C1=Cc1c[nH]c2ccccc12`, for which the “hERG current change (%, negative = inhibition) at 10uM” value is reported as 11.1%.
To `COc1ccc(/C=N/NC(=S)Nc2ccccc2)cc1COc1ccc(Br)cc1` belongs -1.6%; to `Cc1c(C(=O)N2CCOCC2)c(S(=O)(=O)Nc2ccccc2)c(C)n1C`, 8.84%; to `COc1ccc(/C=C2\C(=O)ON=C2c2ccccc2)cc1`, 23.2%.
To `COc1ccc(NC(=O)CN(C)S(=O)(=O)c2ccc3c(c2)CC(C)N3C(C)=O)cc1OC` (centres unmarked) belongs 10.3%; to `COc1ccc(C(=O)N(C(C)C)C(C)C)c(OC)c1`, 7.5%; to `CC(C)(C)C1C=C(Sc2ccccc2)C(=O)O1` (centres unmarked), -16%.
With `Cc1ccc2c(c1)sc[n+]2Cc1ccccc1.[Br-]`, the “hERG current change (%, negative = inhibition) at 10uM” value is on record as 15%.
The result for `O=C(c1ccc(S(=O)(=O)Nc2ccccc2Cl)cc1)N1CCOCC1` reads 5.07%; that for `Cc1cc(NC(=O)COc2cccc(C)c2C)no1`, 0.696%.
On to `COc1ccc(N2CCN(Cc3cc(=O)c(OCC(=O)Nc4ccccc4)co3)CC2)cc1`, for which the “hERG current change (%, negative = inhibition) at 10uM” value was found to be 9.41%.
To `N#C/C(=N\Nc1ccc(S(=O)(=O)N2CCc3ccccc32)cc1)C(N)=S` belongs 12.3%; to `O=c1c(OC2OC(CO)C(O)C(O)C2O)c(-c2ccc(O)c(O)c2)oc2cc(O)cc(O)c12` (centres unmarked), 16.7%; to `COc1cc(CNC2CCC(C)C2)cc(OC)c1` (centres unmarked), 7.93%.
With `COc1ccc(C(=O)NNC2CC(=O)N(Cc3ccc(Cl)cc3)C2=O)cc1OC` (centres unmarked), the “hERG current change (%, negative = inhibition) at 10uM” value was -3.13%.
`COc1ccc2nc(NC(=O)CN3CCN(C)CC3)sc2c1.Cl`: the “hERG current change (%, negative = inhibition) at 10uM” value is -5.07%.
The result for `CC(C)C(=O)Nc1ccc(N2CCN(C(=O)c3cccs3)CC2)cc1` reads -6.99%.
Turning to `Cc1ccc(CNC(=O)C2CC(=O)N(C3CCCC3)C2)cc1` (centres unmarked), the “hERG current change (%, negative = inhibition) at 10uM” value is on record as 10.8%.
To `Cc1c(O)c(=O)c2ccccc2n1C` belongs 17.9%; to `COC(=O)C1=C(Nc2ccc(C)cc2)C=C(C)C(C(=O)OC)C1c1ccc(F)cc1` (centres unmarked), 15.2%.
`Cc1ccc(-c2nnc(-c3ccc(NC(=O)c4cccs4)cc3)o2)cc1`: the “hERG current change (%, negative = inhibition) at 10uM” value was found to be 7.86%.
`CC(C)C[C@@H](CO)N1CCN(C)CCC1=O`: the “hERG current change (%, negative = inhibition) at 10uM” value is reported as -4.26%.
The result for `CN(C)CCCNS(=O)(=O)c1cc(Cl)ccc1Cl` reads 5.61%; that for `COc1ccc(C(C)NS(=O)(=O)Cc2ccccc2)cc1` (centres unmarked), 9.56%; that for `Cc1ccc2cc3cc(C(=O)NCCC(C)C)oc3nc2c1`, 8.43%.
To `CCOc1ccc(NC(=O)NNC(=O)c2ccc3ccccc3c2O)cc1` belongs 10.9%; to `C=CC[n+]1ccc2ccccc2c1C.[Cl-]`, 9.28%; to `COc1ccc(N2CCN(C(CNC(=O)C(C)(C)C)c3cccnc3)CC2)cc1` (centres unmarked), -36.7%.
`O=C(CCCN1C(=O)c2ccccc2C1=O)Nc1cccnc1`: the “hERG current change (%, negative = inhibition) at 10uM” value was -2.46%.
The result for `CC(C)(C)NC(=O)CN(Cc1ccco1)C(=O)CCC(=O)Nc1nccs1` reads 4.5%; that for `CN(C)c1ccc(NC(=S)N2CCN(c3ncc(C(F)(F)F)cc3Cl)CC2)cc1`, 14.2%; that for `Cn1c(=O)c(=O)n(C)c2cc(S(=O)(=O)NCCN3CCN(c4ccccc4F)CC3)ccc21`, 15.1%.
The result for `COc1cc(CCC(=O)Nc2ccc(Br)c(C(F)(F)F)c2)cc(OC)c1OC` reads 10.9%.
As to `CCN(CC(=O)NCc1cccs1)C(=O)c1ccc(S(=O)(=O)Nc2cccc(C)c2C)cc1`, the “hERG current change (%, negative = inhibition) at 10uM” value was -34%.
`COc1ccccc1C(=O)NC(=O)Nc1nc(-c2ccccc2)cc(C(F)(F)F)n1`: the “hERG current change (%, negative = inhibition) at 10uM” value amounted to 14%.
The result for `Cc1ccc(NC(=O)c2cc(C)n(-c3cccc(C)c3)c2C)cc1` reads 5.53%.
With `COc1ccc(S(=O)(=O)n2cnc3ccccc32)c(C)c1`, the “hERG current change (%, negative = inhibition) at 10uM” value is reported as -5.7%.
Turning to `O=C(NC(=S)Nc1ccc2oc(=O)ccc2c1)c1ccc(-c2cccc(Cl)c2Cl)o1`, the “hERG current change (%, negative = inhibition) at 10uM” value turned out to be 2.02%.
To `CCOC(=O)c1ccc(N(C(=O)CNC(=O)c2ccco2)C(C(=O)NCC2CCCO2)c2ccc(OC)c(OC)c2)cc1` (centres unmarked) belongs 15.3%.
For the molecule `O=C(CSc1nnc(Nc2ccccc2F)s1)NC1CC1`, the “hERG current change (%, negative = inhibition) at 10uM” value came to 10.1%.
To `COc1c2ccccc2nc2ccccc12` belongs 13.3%; to `COc1cc(OC)cc(-c2nnc(NC(=O)CCS(=O)(=O)c3ccccc3)o2)c1`, -26.2%; to `Cn1nc(C(C)(C)C)cc1C(=O)NCc1cc(F)cc2c1OCOC2`, 1.16%.
With `O=C(Nc1ccccc1-c1ccccc1)C1CCCC1`, the “hERG current change (%, negative = inhibition) at 10uM” value was -11.6%.
On to `CN(c1ccccc1C(=O)O)S(=O)(=O)c1ccc2c3c(cccc13)C(=O)N2`, for which the “hERG current change (%, negative = inhibition) at 10uM” value amounted to 2.27%.
The result for `Cc1ccc(C)c(N2CCN(CCN3CCCCC3)CC2)c1.Cl` reads -3.6%; that for `O=C(c1cccs1)N1CCN(C23CC4CC(CC(C4)C2)C3)CC1`, -35.8%; that for `CCCC(C)C(=O)NCc1ccncc1` (centres unmarked), 8.84%.
With `COc1ccc2sc(N3C(=O)CC(Cc4cccc(C)c4)C3=O)nc2c1` (centres unmarked), the “hERG current change (%, negative = inhibition) at 10uM” value is -22.9%.
`CC(C(=O)Nc1cc([N+](=O)[O-])ccc1Cl)N1CCN(c2ccccc2O)CC1` (centres unmarked): the “hERG current change (%, negative = inhibition) at 10uM” value was -1.79%.
To `CC(=O)c1cnc2nc(SCc3ccc(Cl)cc3)nn2c1C` belongs -12.5%; to `CCOC(=O)C1CCCN(C(=O)CNC(=O)c2nn(-c3ccc(OC)c(Cl)c3)c(=O)c3ccccc23)C1` (centres unmarked), -5.66%; to `CCOC(=O)c1c(C)[nH]c(C)c1S(=O)(=O)N1CCN(c2cccc(C)c2)C(C)C1` (centres unmarked), -2.7%.
Take `CCCCN(C(=O)Cn1nnc2ccccc21)C(C(=O)NCCOC)c1ccc(OC)cc1` (centres unmarked): the “hERG current change (%, negative = inhibition) at 10uM” value is recorded as -4.51%.
As to `CC(=O)n1cc([C@H]2C=C(C(=O)N3CCOCC3)O[C@@H](OCc3ccc(CO)cc3)C2)c2ccccc21`, the “hERG current change (%, negative = inhibition) at 10uM” value is on record as -55.2%.
For `NC(=O)c1ccc2c(c1)S(=O)(=O)c1ccccc1C2=O`, the “hERG current change (%, negative = inhibition) at 10uM” value stood at 28.9%.
To `O=C(Nc1cccc(OC(=O)N2CCOCC2)c1)N1CCOCC1` belongs 22.6%; to `Fc1ccc(CSc2nncn2NC/C=C/c2ccccc2)cc1`, -43.7%; to `CC1=CC(C)(C)N(S(=O)(=O)c2ccc(F)cc2)c2ccc(C)cc21`, -6.32%.
The result for `O=C(Nc1ccncc1)C1c2ccccc2Oc2ccccc21` reads 6.78%.
Regarding `S=C1Nc2cc(Cl)ccc2Sc2ccccc21`, the “hERG current change (%, negative = inhibition) at 10uM” value turned out to be 23%.
In the case of `O=C(NNC(=O)c1ccc(Br)s1)c1ccc(F)c(S(=O)(=O)N2CCOCC2)c1`, the “hERG current change (%, negative = inhibition) at 10uM” value was -21.2%.
The result for `FCCCOc1ccc(CN2CCN(c3ccccc3F)CC2)cc1` reads -42.2%; that for `Cc1ccc(NC(=O)C(C)Oc2ccccc2)cc1S(=O)(=O)N1CCCCCC1` (centres unmarked), -7.7%; that for `CCOC(=O)CSc1ccc(-c2nc3cc(C)c(C)cc3[nH]2)cn1`, 19.1%.
